Laboratory results taken from the antibiotic and cytotoxicity screens of Wong et al. (2023).
This is one part of the list.

Columns and labels:
HSkMC = human skeletal muscle cells; assay: cytotoxicity call (relative viability < 0.9); conditions: 10 µM
HepG2 = assay: cytotoxicity call (relative viability < 0.9); conditions: 10 µM
S. aureus RN4220 = assay: growth inhibition call (relative growth <= 0.2); conditions: 50 µM

C[C@@H]1CN([C@H](C)CO)C(=O)Cc2cc(NC(=O)C3CCCCC3)ccc2O[C@@H]1CN(C)C(=O)Nc1ccc(C(F)(F)F)cc1
inactive: cytotoxicity call (HSkMC) | cytotoxicity call (HepG2) | growth inhibition call (S. aureus RN4220)

CO[C@@H]1CN(C)C(=O)c2ccc(NS(=O)(=O)c3cn(C)cn3)cc2OC[C@@H](C)N(Cc2cccc(F)c2)C[C@@H]1C
inactive: cytotoxicity call (HSkMC) | cytotoxicity call (HepG2) | growth inhibition call (S. aureus RN4220)

C[C@@H]1CCCCO[C@@H](CN(C)C)[C@@H](C)CN([C@@H](C)CO)C(=O)c2cc(NC(=O)Nc3cccc4ccccc34)ccc2O1
inactive: cytotoxicity call (HSkMC) | cytotoxicity call (HepG2) | growth inhibition call (S. aureus RN4220)

COC(=O)CNC(=O)c1ccccc1
inactive: cytotoxicity call (HSkMC) | cytotoxicity call (HepG2) | growth inhibition call (S. aureus RN4220)

CC(C)NC(=O)N(C)C[C@H]1OCCCC[C@@H](C)Oc2ccc(NS(=O)(=O)c3cn(C)cn3)cc2C(=O)N([C@H](C)CO)C[C@@H]1C
inactive: cytotoxicity call (HSkMC) | cytotoxicity call (HepG2) | growth inhibition call (S. aureus RN4220)

COc1ccc(NC(=O)N(C)C[C@@H]2Oc3ncc(C#CCN(C)C)cc3C(=O)N([C@H](C)CO)C[C@H]2C)cc1
inactive: cytotoxicity call (HSkMC) | cytotoxicity call (HepG2) | growth inhibition call (S. aureus RN4220)

Cc1noc(C)c1NC(=O)N1C[C@H](O)COC[C@H]2O[C@H](CC(=O)N[C@H]3CCN(Cc4ccccc4)C3)CC[C@@H]21
inactive: cytotoxicity call (HSkMC) | cytotoxicity call (HepG2) | growth inhibition call (S. aureus RN4220)

COc1ccc(S(=O)(=O)Nc2ccc3c(c2)C(=O)N([C@@H](C)CO)C[C@H](C)[C@@H](CN(C)C(=O)CCC(F)(F)F)OCCCC[C@H](C)O3)cc1
inactive: cytotoxicity call (HSkMC) | cytotoxicity call (HepG2) | growth inhibition call (S. aureus RN4220)

CC(C)NC(=O)Nc1cccc2c1O[C@H](CN(C)Cc1ccc(-c3ccccc3)cc1)[C@H](C)CN([C@@H](C)CO)C2=O
inactive: cytotoxicity call (HSkMC) | cytotoxicity call (HepG2) | growth inhibition call (S. aureus RN4220)

C[C@H](CO)N1C[C@H](C)[C@H](CN(C)C(=O)NC2CCCCC2)Oc2ccc(NC(=O)c3ccncc3)cc2CC1=O
inactive: cytotoxicity call (HSkMC) | cytotoxicity call (HepG2) | growth inhibition call (S. aureus RN4220)

CCCNC(=O)N1C[C@@H](C)[C@H](OC)CN(C)C(=O)c2ccc(NS(=O)(=O)CC(F)(F)F)cc2OC[C@@H]1C
inactive: cytotoxicity call (HSkMC) | cytotoxicity call (HepG2) | growth inhibition call (S. aureus RN4220)

C[C@@H]1CN([C@H](C)CO)C(=O)Cc2cc(NS(=O)(=O)c3cccs3)ccc2O[C@H]1CN(C)CC1CC1
inactive: cytotoxicity call (HSkMC) | cytotoxicity call (HepG2) | growth inhibition call (S. aureus RN4220)
